Laboratory results taken from the RNAGym collection of RNA variant scans (doi:10.7554/elife.90254).
Read counts are not given, so values of variants with three or more changes are uncertain.

B1: LINE1-mini (parent)
chain: GGCAGAGCUCAACACAGCGUGGCAAAGUGGCUGUGGCUAGACUGCC

Variants of: B1
Assay: self-cleavage, relative activity (ratio to wild type); higher = more cleavage; in vitro, sequencing; the parent is a self-cleaving ribozyme

Row | Variant | self-cleavage
1 | C8G U32C G33A U34G | 0.14
2 | C23G A26G G33C U43A | 0.01
3 | G5C C31G U32C | 0
4 | G36A A39U A41C C42A | 0.07
5 | C18G G27C G29A G36A U38C A41C | 0.01
6 | C10U C31A G33U U38C | 0.01
7 | G1U A4U C15A A26U U34A G35U G36C | 0.04
8 | G5A C10U G35C | 0.02
9 | A12U C18A U43C | 0.01
10 | G1C C3G C10U | 0.06
11 | G1C G5C A41G | 0.07
12 | G1U U9C G44C | 0.02
13 | G2C C3U G7C G17C | 0.16
14 | G17U C23A G27C | 1.52
15 | G5A A6U G7U | 0
16 | G35A A41G U43A C45A | 0
17 | A11C C13G G27U G44C | 0.01
18 | U9A A16G A26U | 0.16
19 | A6G U9G C23A C37G G40U G44U | 0.05
20 | G17U A26C G27U A41U | 0.05
21 | G2U C3A C46G | 0.09

Row | Variant | self-cleavage
22 | C3G A12G A14U C18U G29U | 0.04
23 | G2A G5U A25C G33C C45U | 0.1
24 | C3A A24C C37U | 0.11
25 | C15U G27U G40C U43G | 0.06
26 | A16C G21U U32G A41C | 0.03
27 | C15A G17A U38A | 0.01
28 | G2U G7C C13U G22U U32C C37G | 0.03
29 | A26G U28A G40U | 0.14
30 | A26U G29A G33A | 0.01
31 | G5A G19A A26U | 0.08
32 | G17A C23A U28C | 0.41
33 | G2U C10A C23U C37G G40U | 0.01
34 | G2A C31G G35A G36C | 0.16
35 | C13G G17U C42A | 0.02
36 | C3U C18U G29A A41U | 0.35
37 | C8G A12U C23A A26G | 0.07
38 | C8G U32C A39U A41C | 0.11
39 | G21A A26U C31U | 0.42
40 | C23A A24C G35U | 0.07
41 | G2C C3U A4U U20A G21C A26G U38A | 0.02
42 | G5A G22U G30U U32A G33A | 0.06

Row | Variant | self-cleavage
43 | G29U A39U G40A | 0.05
44 | U9G G40U C46U | 0.04
45 | C3A G19U G27A G29U | 0.32
46 | A16G G22U U32A A39C | 0.01
47 | A12C A14C G35C A41C | 0.02
48 | C10U G17U A26U C31U | 0.06
49 | G30C U34G C42A | 0.02
50 | U9A A16U C31A | 0.03
51 | U9G G21C A26C G29A G36U | 0.03
52 | A11U G19U A26G | 0.17
53 | A16G G40U C42G | 0.02
54 | U9C G27U G33A | 0.05
55 | C10A G19A G22A | 0.06
56 | A11U G21U C23U U32C A41G | 0.02
57 | G36A C37G A39C G44A | 0.06
58 | C8U C13G A39U | 0.05
59 | G2C A12U G17U A24U U28A G35C U38A | 0.07
60 | G5A U9G C15U G30A C37U A41C | 0.02
61 | C13G G35A C45U | 0.08
62 | C8G A11C G17U A25G G27U G33U | 0.01
63 | G5U A24C G27C | 0.02

Row | Variant | self-cleavage
64 | A12C C18A A24G C42U | 0
65 | A14C G35C C37A C45A C46A | 0.01
66 | G17A C18U U20A G21C C23A C46A | 0.1
67 | C3A G5A G7U C15U U20A | 0.86
68 | C8U C18G C31A C46U | 0.02
69 | G7U G22U C45U C46A | 0.03
70 | G5U A14G G21A C42A | 0.15
71 | A4G A24C U32G | 0.02
72 | A6G U9C C31G | 0
73 | G2A A16C U34A G40C | 0.26
74 | G2C C13G G30C C31U G40A | 0
75 | C8A G30U G35C C45A | 0.08
76 | C13U C23G G35C | 0.08
77 | A6U G29C G35C C45U | 0.08
78 | A11G C18U G36A C45G | 0.02
79 | A16C A41C G44A | 0.01
80 | G1A G2U G19U C42U | 0.02
81 | G1U A12U C18G G27C G30C G44U | 0.01
82 | C3U G17A C18U C37A | 0.18
83 | G2C A4G G5A U9A A12C C13U G17U A25U | 0.03
